Measured values: the supplement of paper PMC11417369
± gives the standard deviation of the averaged measurements. The list shows a part of the results.

The sequences below were run on PfAP2-G AP2 domain (GST-tagged) (assay: gcPBM binding intensity (ln(normalized median fluorescence intensity)); higher = stronger DNA binding).
In short: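 GST-tagged P. falciparum DNA-binding domains, expressed in E. coli (about 25 μg on average), were applied for 1 h to an Agilent 4 × 180k array of primer-extended double-stranded 36-bp intergenic genomic probes plus negative controls. The binding buffer was 1× PBS with 1% milk, 0.2 mg/ml BSA, 0.5% salmon testes DNA and 0.03% Triton X-100. Bound protein was detected with Alexa488 anti-GST antibody and scanned at 488 nm. Binding intensity is the highest Masliner-normalised natural-log median intensity across replicate spots of either probe orientation.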

Sequence	gcPBM binding intensity (ln)
TCCTAATGGTTTAATTGTACAAAAAAAAAAAATATA [XGTACX_site322]	11 ± 0.6
ATAGATGTCTTCATATGTACATAAATTCAAGTATAT [XGTACX_site7492]	11.3 ± 0.76
TGATTATAAAAGTAGGTGCTACAAAAATTACACATT [GTGCAC_site9530]	10.03 ± 0.099
CAAAATATTATGAATTGTACATATTTTAAAACGTTT [XGTACX_site1614]	11 ± 0.7
AGGAAATTTTTTTTTTTTTTTTTTTTTTTTTTTTAC [TGCATGCA_negctrl_site170]	9.505 ± 0.049
ATAATATATAATATAGTGCATTATTTATTAATTAAT [GTGCAC_site9852]	9.875 ± 0.035
AATGAAAAGGAACATACACACCCCATATAAATATAT [CACACA_site7588]	10.21 ± 0.071
TATTTCTTATGAAGGACATGCAATATTATTTATCTC [TGCATGCA_site683]	10.6 ± 0.4
TTTTTTTTAATTTTCTGTACAAATTTATATATACTA [XGTACX_site4251]	10.8 ± 0.49
TTATATTTTAAGAAATGTACATGATATAATTATCAA [XGTACX_site8693]	11 ± 0.6
TGGATGAGGACATACACACACACATAAGTTGATACA [CACACA_site3423]	10.9 ± 0.69
ACAAAACATAATTGTTGTACAAAAAGAATTATATAT [XGTACX_site8422]	11.2 ± 0.67
ATAATAATATAATATTCACACAATTGAAATAGTGTA [CACACA_site6083]	9.64 ± 0.12
TTTCGAATTAAAGCATGTGAAAATTTTCAAAAAATA [XGTACX_negctrl_site577]	9.95 ± 0.057
GAATCACTAATTTTTTTACACACCACAATTTAATTT [CACACA_site8311]	10.12 ± 0.049
AAATAAAAATTACAAGCATGCATTTTCCTATTTGCA [TGCATGCA_site861]	9.38 ± 0.37
GAATAAATTGTATTGTGTACATATAAAAGCATCTAA [XGTACX_site8271]	11.4 ± 0.78
AAAAAATTTTGAAATTGTACATATATAAAAAATATA [XGTACX_site2629]	10.9 ± 0.57
TTTAAATATATTAATACACACACGATATGTACAAAA [CACACA_site539]	11.3 ± 0.67

Sequence	gcPBM binding intensity (ln)
TATAAATATACAAAGGTGCATAAAAAGTTATGTTTT [GTGCAC_site9832]	10.1 ± 0.13
TTTCTATAATATTCTACACACCAACAACAAACATAT [CACACA_site6409]	10.4 ± 0.41
TTTTTTTTTTTTTTTACACACACAAAATATTATATG [CACACA_site2471]	9.99 ± 0.38
TATTATTTACCTTGCTAGTTCGTTCCAAATTTTATG [XGTACX_negctrl_site197]	10.35 ± 0.028
ATGTTTGATGCTACACGTACACACCTTGCAAATATT [XGTACX_site1644]	11.6 ± 1
TATATTATTCATTAAGCACACATTATTTTTATAATA [CACACA_site6056]	10 ± 0.17
AAAACTATAATAAAAGGTACACATTTATTTTTTTCT [XGTACX_site730]	11.2 ± 0.95
TTTATATGTATTAAGTGTACACATATAATGTGTTTT [XGTACX_site4890]	11.6 ± 0.87
TATTCTAATATATGCATACACACAAATGTGAATATA [CACACA_site2143]	9.96 ± 0.13
CACATTATGTATCATACACACAAATAAATATAGAAT [CACACA_site609]	10.4 ± 0.18
ATTTTAAATATTTGTGGTACCCCTTTTTTGTAACAA [XGTACX_site5590]	11.8 ± 1.1
TAAAAAAGAACAGAAACACACAAATAAAATAAAATT [CACACA_site1758]	9.96 ± 0.11
CAAAATTGAAGGAACACACATACATATATATATATG [CACACA_site179]	10.2 ± 0.24
AAATAAAAAGGGTGCACACAAAAATATATATATATA [CACACA_site1728]	10.8 ± 0.88
CTTTGTGGTATAGATACACACTATATTAATATGAAC [CACACA_site7081]	10.3 ± 0.17
TCATATTTTACATATGCATGTTAATAATACAAACAT [TGCATGCA_site994]	9.765 ± 0.021
TTTTTTTCGTATATTACACACTATAAATAGAAATTA [CACACA_site6278]	10 ± 0.25
ATTTATTTATGTATTTGTACGTATATATTTATGCAT [XGTACX_site5218]	11.3 ± 0.83
GTATAACAACTGATAAAAGAAAAAAAATTTATTATT [CACACA_negctrl_site377]	9.73 ± 0.17

Sequence	gcPBM binding intensity (ln)
ATAATATTTTTAAACTGTACTTTTATAAACACTTAT [XGTACX_site2625]	11.5 ± 0.98
AATAGTTATAAATATAAATATATATATATATATATA [CACACA_negctrl_site414]	9.89 ± 0.56
AATAAATATTCATTTTGTACATATTTTTCGTATATG [XGTACX_site6104]	10.9 ± 0.57
TTACCATAAGTATGTGGTACACTTTAAATGAAGATA [XGTACX_site6972]	11.4 ± 0.83
ATATTATGTCTACATAAACACACATATATATAAAAA [CACACA_site7976]	10.09 ± 0.042
TTAACATCAAAATATGCACACAAACAATTAGCGGTA [CACACA_site8801]	10.1 ± 0.085
TATATATATAAATACACACACACCCTAAAAATATAT [CACACA_site4970]	10.3 ± 0.24
TTTTCATTCTTTTCCTTTGATTTACAATAGTATATT [GTGCAC_negctrl_site687]	9.85 ± 0.057
TAAAAGTTCACCTGTACACACATATATATCTGTACA [CACACA_site5019]	11.5 ± 0.59
TCATTATATTATTCTTGTACTTATATCCTTTTTTGA [XGTACX_site5320]	11.2 ± 0.52
CAAAATATTATCATGATGCACTTTACACTCTAAGGT	9.97
AAAAAATAAAAGTGGGGTACATGTCATTATGTGCAT [XGTACX_site3753]	11.4 ± 0.84
AGGCCTTTTAGTATTTCACACACGTAAATGTGTATA [CACACA_site8284]	10.02 ± 0.049
ATTTGTTTAAGTCACGAACACACATATATCATCAAT [CACACA_site985]	10.2 ± 0.19
ATTATTTACCACAACACACAAATATTTACCAATCAT [CACACA_site5472]	10.3 ± 0.18
AATATATACATACATACATGCACATATATATATATA [TGCATGCA_site393]	10.2 ± 0.31
AAATAGTTGTTATGGGTGCAAACCACATATATATAA [GTGCAC_site9428]	10.3 ± 0.28
GTTTATTAGGAATTATGTACACAGTTTTATAAAGAA [XGTACX_site2994]	11.5 ± 1
AATATAATATATTGCACACAAAAAGTGAATTATTCT [CACACA_site1684]	10.12 ± 0.085
